In assay [1] the target is HcpA deletion mutant, residues 18-115 (B. recurrentis A1) (UniProt C1L349). The assay is described as follows: ELISA; microtiter plates coated with non-denatured HcpA or deletion mutants (1 µg/ml), incubated with 50% normal human serum as source for CFHR-1 for 1 h at RT; mAb JHD8; only the target purified. A general note: ELISA stands for enzyme-linked immunosorbent assay.

By UniProt entry, the sequences of proteins in these tests, tags left out. Residues count along the entry.
UniProt Q03591, residues 19-330: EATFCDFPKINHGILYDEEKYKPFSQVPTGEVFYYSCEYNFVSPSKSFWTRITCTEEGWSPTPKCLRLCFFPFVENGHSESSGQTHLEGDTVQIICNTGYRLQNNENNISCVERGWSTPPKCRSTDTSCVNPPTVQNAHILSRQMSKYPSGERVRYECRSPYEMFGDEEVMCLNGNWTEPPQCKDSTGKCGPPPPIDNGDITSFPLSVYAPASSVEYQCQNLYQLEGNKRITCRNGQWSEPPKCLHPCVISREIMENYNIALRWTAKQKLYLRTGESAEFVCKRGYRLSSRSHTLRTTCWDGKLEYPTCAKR
UniProt P08603, residues 19-1231: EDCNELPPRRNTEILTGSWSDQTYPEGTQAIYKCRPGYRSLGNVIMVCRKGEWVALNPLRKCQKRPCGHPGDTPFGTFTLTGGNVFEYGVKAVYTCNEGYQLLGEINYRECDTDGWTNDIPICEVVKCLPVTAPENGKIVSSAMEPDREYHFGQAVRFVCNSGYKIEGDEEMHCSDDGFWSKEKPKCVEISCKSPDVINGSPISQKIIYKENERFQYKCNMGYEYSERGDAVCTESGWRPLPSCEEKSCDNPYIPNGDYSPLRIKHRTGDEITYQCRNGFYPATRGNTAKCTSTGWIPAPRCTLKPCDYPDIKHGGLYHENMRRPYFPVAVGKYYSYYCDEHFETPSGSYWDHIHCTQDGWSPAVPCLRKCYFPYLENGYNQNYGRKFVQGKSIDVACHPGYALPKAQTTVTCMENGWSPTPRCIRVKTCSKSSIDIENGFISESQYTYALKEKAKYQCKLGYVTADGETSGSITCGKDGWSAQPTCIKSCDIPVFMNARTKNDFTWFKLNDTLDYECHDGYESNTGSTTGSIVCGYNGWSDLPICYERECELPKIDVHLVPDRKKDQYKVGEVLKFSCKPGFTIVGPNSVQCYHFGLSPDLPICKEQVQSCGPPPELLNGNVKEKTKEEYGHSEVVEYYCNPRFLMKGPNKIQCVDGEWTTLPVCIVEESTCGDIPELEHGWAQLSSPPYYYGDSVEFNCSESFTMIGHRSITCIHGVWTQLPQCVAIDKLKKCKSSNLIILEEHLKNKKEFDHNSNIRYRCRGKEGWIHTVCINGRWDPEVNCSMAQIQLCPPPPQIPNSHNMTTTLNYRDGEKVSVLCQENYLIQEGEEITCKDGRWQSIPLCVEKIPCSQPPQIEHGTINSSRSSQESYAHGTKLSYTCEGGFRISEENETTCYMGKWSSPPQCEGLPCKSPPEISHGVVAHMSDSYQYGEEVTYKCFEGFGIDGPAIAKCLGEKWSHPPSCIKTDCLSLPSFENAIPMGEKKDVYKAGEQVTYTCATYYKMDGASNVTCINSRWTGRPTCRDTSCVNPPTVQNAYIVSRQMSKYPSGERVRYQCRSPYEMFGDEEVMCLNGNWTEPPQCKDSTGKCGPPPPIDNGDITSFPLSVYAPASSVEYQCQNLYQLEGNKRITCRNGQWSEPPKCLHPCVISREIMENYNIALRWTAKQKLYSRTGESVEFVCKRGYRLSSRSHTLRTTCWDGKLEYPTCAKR

Assay [2] deals with HcpA deletion mutant, residues 18-145 (B. recurrentis A1) (UniProt C1L349). The description is as above.
The target in assay [3] is HcpA deletion mutant, residues 48-175 (B. recurrentis A1) (UniProt C1L349). The description is as above.
Assay [4] addresses HcpA deletion mutant, residues 78-175 (B. recurrentis A1) (UniProt C1L349). The assay is described as above.
Assay [5] deals with T1, recombinant full-length HcpA (residues 18 to 175) of B. recurrentis A1 (B. recurrentis A1) (UniProt C1L349).
T1 sequence: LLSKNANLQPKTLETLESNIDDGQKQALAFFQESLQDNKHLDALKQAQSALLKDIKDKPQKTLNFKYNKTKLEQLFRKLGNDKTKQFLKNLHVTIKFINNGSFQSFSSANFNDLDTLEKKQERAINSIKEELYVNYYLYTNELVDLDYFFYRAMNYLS
The description is as above.

The target of assay [6] is HcpA deletion mutant, residues 18-115 (B. recurrentis A1) (UniProt C1L349). The assay is described as follows: far-Western, overlay or dot blot; ligand affinity blot: purified recombinant HcpA proteins (200 ng) separated by SDS-PAGE, on nitrocellulose, incubated with normal human serum; goat anti-CFH immune serum or CFHR-1 specific mAb JHD8; only the target purified.
For assay [7], the target named is HcpA deletion mutant, residues 18-145 (B. recurrentis A1) (UniProt C1L349). Described as above.
Assay [8] addresses HcpA deletion mutant, residues 48-175 (B. recurrentis A1) (UniProt C1L349). The description is as above.
Assay [9] has as its target HcpA deletion mutant, residues 78-175 (B. recurrentis A1) (UniProt C1L349). The assay is described as above.
Assay [10] has as its target T1, recombinant full-length HcpA (residues 18 to 175) of B. recurrentis A1 (B. recurrentis A1). Described as above.
The target of assay [11] is HcpA deletion mutant, residues 18-115 (B. recurrentis A1) (UniProt C1L349). The experiment in a line: ELISA; microtiter plates coated with non-denatured HcpA or deletion mutants (1 µg/ml), incubated with CFH (10 µg/ml) or PLG (20 µg/ml) for 1 h at RT; goat anti-CFH or goat anti-PLG; both purified.
The target of assay [12] is HcpA deletion mutant, residues 18-145 (B. recurrentis A1) (UniProt C1L349). Described as above.
Assay [13] has as its target HcpA deletion mutant, residues 48-175 (B. recurrentis A1) (UniProt C1L349). Described as above.
The target of assay [14] is HcpA deletion mutant, residues 78-175 (B. recurrentis A1) (UniProt C1L349). Described as above.

No constants are given. Whether binding was seen depends on the method and setting. Some results given as binding are weak or reduced against the parent protein; the word gives no strength.

For “CFH-related protein 1 of normal human serum (from UniProt Q03591 19-330)”, the binding entry in assay [1] is listed as “no binding (tested: 50% normal human serum)”; in [2] it was “no binding (tested: 50% normal human serum)”; in assay [3], “no binding (tested: 50% normal human serum)”; in assay [4] it was “no binding (tested: 50% normal human serum)”; in [5], “binds”; in assay [6], “no binding”. Also, the binding entry is given as “no binding” in assay [7], “no binding” in assay [8], “no binding” in assay [9] and “binds” in [10].

For “human complement factor H (from UniProt P08603 19-1231)”, the binding entry is reported as “no binding (tested: 10 µg/ml CFH)” in assay [11]; “no binding (tested: 10 µg/ml CFH)” in assay [12]; “no binding (tested: 10 µg/ml CFH)” in [13]; “no binding (tested: 10 µg/ml CFH)” in [14]; “no binding” in assay [6]; “no binding” in assay [7]. Also, the binding entry in [8] and in [9] was “no binding” each time.

For the origin of these results see PMC2654920, “Borrelia recurrentis Employs a Novel Multifunctional Surface Protein with Anti-Complement, Anti-Opsonic and Invasive Potential to Escape Innate Immunity” (PLoS ONE, 2009).
